# Measured values published in the supplement of paper PMC8728848.
# Some of the results follow.
# B1: AidA (Burkholderia cenocepacia) (protein)
# chain: MSRVTDVLVSFDTETILKKYPNPSKNPAAPTLIDWRYVYMVTNQDNVISGQAGGELDLKAQVGDLIRWRETSLSLGFENQVVFYKFIGNVGNDLISTPTPRVAEASIPVPNTSKPEVPTCQKVANYYWSSECLKVGRVTYHFQFQIIDRNCQSQGCFSWDPFISIHN
# What was measured:
# Test in all cases: glycan array binding signal (z-score within array); higher = stronger binding
# Conditions in all cases: glycan notation: IUPAC condensed, linker removed
# [1] = target: Neu5Ac(a2-6)Gal(b1-3)GlcNAc(b1-3)[Gal(b1-4)GlcNAc(b1-6)]Gal(b1-4)Glc
# Procedure, shortened: (§1)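 From the Consortium for Functional Glycomics database, 3228 arrays were curated, keeping only those whose protein sequence was available. Binding is given as a within-array Z-score averaged across arrays sharing a protein sequence and across linkers. Negative Z-scores can be read as non-binding.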
# [2] = target: Neu5Ac(a2-6)Gal(b1-4)Glc
# Procedure, shortened: as §1
# [3] = target: Neu5Ac(a2-6)Gal(b1-4)GlcNAc
# Procedure, shortened: as §1
# [4] = target: Neu5Ac(a2-6)Gal(b1-4)GlcNAc(b1-2)Man
# Procedure, shortened: as §1
# [5] = target: Neu5Ac(a2-6)Gal(b1-4)GlcNAc(b1-2)Man(a1-3)Man(b1-4)GlcNAc(b1-4)GlcNAc
# Procedure, shortened: as §1
# [6] = target: Neu5Ac(a2-6)Gal(b1-4)GlcNAc(b1-2)Man(a1-3)[Gal(b1-4)GlcNAc(b1-2)Man(a1-6)]Man(b1-4)GlcNAc(b1-4)GlcNAc
# Procedure, shortened: as §1
# [7] = target: Neu5Ac(a2-6)Gal(b1-4)GlcNAc(b1-2)Man(a1-3)[GlcNAc(b1-2)Man(a1-6)]Man(b1-4)GlcNAc(b1-4)GlcNAc
# Procedure, shortened: as §1
# [8] = target: Neu5Ac(a2-6)Gal(b1-4)GlcNAc(b1-2)Man(a1-3)[GlcNAc(b1-4)][Neu5Ac(a2-6)Gal(b1-4)GlcNAc(b1-2)Man(a1-6)]Man(b1-4)GlcNAc(b1-4)GlcNAc
# Procedure, shortened: as §1
# [9] = target: Neu5Ac(a2-6)Gal(b1-4)GlcNAc(b1-2)Man(a1-3)[Man(a1-6)]Man(b1-4)GlcNAc(b1-4)GlcNAc
# Procedure, shortened: as §1
# [10] = target: Neu5Ac(a2-6)Gal(b1-4)GlcNAc(b1-2)Man(a1-3)[Neu5Ac(a2-3)Gal(b1-4)GlcNAc(b1-2)Man(a1-6)]Man(b1-4)GlcNAc(b1-4)GlcNAc
# Procedure, shortened: as §1
# [11] = target: Neu5Ac(a2-6)Gal(b1-4)GlcNAc(b1-2)Man(a1-3)[Neu5Ac(a2-6)Gal(b1-4)GlcNAc(b1-2)Man(a1-6)]Man(b1-4)GlcNAc(b1-4)GlcNAc
# Procedure, shortened: as §1
# [12] = target: Neu5Ac(a2-6)Gal(b1-4)GlcNAc(b1-2)Man(a1-3)[Neu5Ac(a2-6)Gal(b1-4)GlcNAc(b1-2)Man(a1-6)]Man(b1-4)GlcNAc(b1-4)[Fuc(a1-6)]GlcNAc
# Procedure, shortened: as §1
# [13] = target: Neu5Ac(a2-6)Gal(b1-4)GlcNAc(b1-2)Man(a1-6)Man(b1-4)GlcNAc(b1-4)GlcNAc
# Procedure, shortened: as §1
# [14] = target: Neu5Ac(a2-6)Gal(b1-4)GlcNAc(b1-2)Man(a1-6)[Gal(b1-4)GlcNAc(b1-2)Man(a1-3)]Man(b1-4)GlcNAc(b1-4)GlcNAc
# Procedure, shortened: as §1
# [15] = target: Neu5Ac(a2-6)Gal(b1-4)GlcNAc(b1-2)Man(a1-6)[GlcNAc(b1-2)Man(a1-3)]Man(b1-4)GlcNAc(b1-4)GlcNAc
# Procedure, shortened: as §1
# [16] = target: Neu5Ac(a2-6)Gal(b1-4)GlcNAc(b1-2)Man(a1-6)[Man(a1-3)]Man(b1-4)GlcNAc(b1-4)GlcNAc
# Procedure, shortened: as §1
# [17] = target: Neu5Ac(a2-6)Gal(b1-4)GlcNAc(b1-2)[Neu5Ac(a2-6)Gal(b1-4)GlcNAc(b1-4)]Man(a1-3)[GlcNAc(b1-4)][Neu5Ac(a2-6)Gal(b1-4)GlcNAc(b1-2)[Neu5Ac(a2-6)Gal(b1-4)GlcNAc(b1-6)]Man(a1-6)]Man(b1-4)GlcNAc(b1-4)GlcNAc
# Procedure, shortened: as §1
# [18] = target: Neu5Ac(a2-6)Gal(b1-4)GlcNAc(b1-2)[Neu5Ac(a2-6)Gal(b1-4)GlcNAc(b1-4)]Man(a1-3)[GlcNAc(b1-4)][Neu5Ac(a2-6)Gal(b1-4)GlcNAc(b1-4)Man(a1-6)]Man(b1-4)GlcNAc(b1-4)GlcNAc
# Procedure, shortened: as §1
# [19] = target: Neu5Ac(a2-6)Gal(b1-4)GlcNAc(b1-2)[Neu5Ac(a2-6)Gal(b1-4)GlcNAc(b1-6)]Man(a1-6)[Neu5Ac(a2-6)Gal(b1-4)GlcNAc(b1-2)Man(a1-3)][GlcNAc(b1-4)]Man(b1-4)GlcNAc(b1-4)GlcNAc
# Procedure, shortened: as §1
# [20] = target: Neu5Ac(a2-6)Gal(b1-4)GlcNAc(b1-3)Gal(b1-3)GlcNAc
# Procedure, shortened: as §1
# [21] = target: Neu5Ac(a2-6)Gal(b1-4)GlcNAc(b1-3)Gal(b1-4)GlcNAc
# Procedure, shortened: as §1
# [22] = target: Neu5Ac(a2-6)Gal(b1-4)GlcNAc(b1-3)Gal(b1-4)GlcNAc(b1-2)Man(a1-3)[Neu5Ac(a2-6)Gal(b1-4)GlcNAc(b1-3)Gal(b1-4)GlcNAc(b1-2)Man(a1-6)]GalNAc
# Procedure, shortened: as §1
# [23] = target: Neu5Ac(a2-6)Gal(b1-4)GlcNAc(b1-3)Gal(b1-4)GlcNAc(b1-3)Gal(b1-4)GlcNAc
# Procedure, shortened: as §1
binder,measurement,setting,value
B1,glycan array binding signal (z-score),[1],0.097
same,glycan array binding signal (z-score),[2],-0.136
same,glycan array binding signal (z-score),[3],-0.035
same,glycan array binding signal (z-score),[4],0.236
same,glycan array binding signal (z-score),[5],-0.123
same,glycan array binding signal (z-score),[6],-0.012
same,glycan array binding signal (z-score),[7],-0.443
same,glycan array binding signal (z-score),[8],-0.426
same,glycan array binding signal (z-score),[9],-0.961
same,glycan array binding signal (z-score),[10],-0.45
same,glycan array binding signal (z-score),[11],0.223
same,glycan array binding signal (z-score),[12],0.19
same,glycan array binding signal (z-score),[13],-0.428
same,glycan array binding signal (z-score),[14],0.622
same,glycan array binding signal (z-score),[15],-0.384
same,glycan array binding signal (z-score),[16],0.17
same,glycan array binding signal (z-score),[17],-0.863
same,glycan array binding signal (z-score),[18],-0.014
same,glycan array binding signal (z-score),[19],-0.793
same,glycan array binding signal (z-score),[20],-0.665
same,glycan array binding signal (z-score),[21],-0.726
same,glycan array binding signal (z-score),[22],0.282
same,glycan array binding signal (z-score),[23],-0.437
